Reference: the supplement of paper PMC6657886
MIC of clinical N. gonorrhoeae isolates (2015-2017) by agar dilution on GC agar with 1% IsoVitaleX (ranges not stated); higher = less susceptible. No active / inactive call per row; the paper counts benzylpenicillin above 1 and ceftriaxone above 0.125 mg/L as resistant (EUCAST). The method is stated for benzylpenicillin and ceftriaxone and assumed for the other drugs. '<=' is inferred from pile-ups at the end values. Isolates are numbered anew.

What was measured:
Assay in all cases: Agar dilution on enriched GC agar; resistance determinants by microarray.
spectinomycin = compound: CN[C@@H]1[C@H](O)[C@H](NC)[C@H]2O[C@@]3(O)C(=O)C[C@@H](C)O[C@H]3O[C@@H]2[C@H]1O [spectinomycin]
benzylpenicillin = compound: CC1(C)S[C@@H]2[C@H](NC(=O)Cc3ccccc3)C(=O)N2[C@H]1C(=O)O [benzylpenicillin]
ceftriaxone = compound: CO/N=C(\C(=O)N[C@@H]1C(=O)N2C(C(=O)O)=C(CSc3nc(=O)c(O)nn3C)CS[C@H]12)c1csc(N)n1 [ceftriaxone]
azithromycin = compound: CC[C@H]1OC(=O)[C@H](C)[C@@H](O[C@H]2C[C@@](C)(OC)[C@@H](O)[C@H](C)O2)[C@H](C)[C@@H](O[C@@H]2O[C@H](C)C[C@H](N(C)C)[C@H]2O)[C@](C)(O)C[C@@H](C)CN(C)[C@H](C)[C@@H](O)[C@]1(C)O [azithromycin]
tetracycline = compound: CN(C)[C@@H]1C(O)=C(C(N)=O)C(=O)[C@@]2(O)C(O)=C3C(=O)c4c(O)cccc4[C@@](C)(O)[C@H]3C[C@@H]12 [tetracycline]

Row | Test System | MIC (spectinomycin) [µg/mL] | MIC (benzylpenicillin) [µg/mL] | MIC (ceftriaxone) [µg/mL] | MIC (azithromycin) [µg/mL] | MIC (tetracycline) [µg/mL]
1 | Neisseria gonorrhoeae isolate 417 (blaTEM plasmid: no, gyrA: Phe91, Asn95, mtrR promoter: wild type, parC: Arg87, Glu91, penA: ins345Asp, ponA: Pro421, porB: wild type, rpsJ: Met57, tetM plasmid: no) | 16 | 0.12 | 0.004 | 0.25 | 0.5
2 | Neisseria gonorrhoeae isolate 197 (blaTEM plasmid: no, gyrA: Phe91, Asn 95, mtrR promoter: -35delA, parC: wild type, penA: ins345Asp, ponA: Pro421, porB: Asn120, Asp121, rpsJ: Met57, tetM plasmid: no) | 8 | 2 | 0.03 | 0.25 | 0.5
3 | Neisseria gonorrhoeae isolate 290 (blaTEM plasmid: no, gyrA: wild type, mtrR promoter: wild type, parC: wild type, penA: wild type, ponA: wild type, porB: Asn120, Asp121, rpsJ: wild type, tetM plasmid: no) | 32 | ≤ 0.015 | ≤ 0.002 | 0.5 | 0.25
4 | Neisseria gonorrhoeae isolate 179 (blaTEM plasmid: no, gyrA: Thr91, Gly95, mtrR promoter: wild type, parC: wild type, penA: wild type, ponA: wild type, porB: wild type, rpsJ: wild type, tetM plasmid: no) | 32 | 0.12 | ≤ 0.002 | 0.06 | 0.12
5 | Neisseria gonorrhoeae isolate 509 (blaTEM plasmid: no, gyrA: Thr91, Gly95, mtrR promoter: wild type, parC: wild type, penA: wild type, ponA: wild type, porB: wild type, rpsJ: wild type, tetM plasmid: no) | 32 | 0.12 | ≤ 0.002 | 0.12 | 0.25
6 | Neisseria gonorrhoeae isolate 280 (blaTEM plasmid: no, gyrA: wild type, mtrR promoter: wild type, parC: wild type, penA: wild type, ponA: wild type, porB: wild type, rpsJ: wild type, tetM plasmid: no) | 16 | ≤ 0.015 | ≤ 0.002 | 0.06 | 0.25
7 | Neisseria gonorrhoeae isolate 66 (blaTEM plasmid: no, gyrA: Phe91, Asn95, mtrR promoter: wild type, parC: wild type, penA: ins345Asp, ponA: Pro421, porB: wild type, rpsJ: Met57, tetM plasmid: yes) | 8 | 0.06 | 0.004 | 0.06 | 32
8 | Neisseria gonorrhoeae isolate 289 (blaTEM plasmid: no, gyrA: Thr91, Gly95, mtrR promoter: wild type, parC: wild type, penA: ins345Asp, ponA: wild type, porB: wild type, rpsJ: wild type, tetM plasmid: no) | 32 | 0.12 | ≤ 0.002 | 0.06 | 0.25
9 | Neisseria gonorrhoeae isolate 229 (blaTEM plasmid: no, gyrA: wild type, mtrR promoter: wild type, parC: wild type, penA: wild type, ponA: wild type, porB: wild type, rpsJ: wild type, tetM plasmid: no) | 16 | ≤ 0.015 | ≤ 0.002 | 0.06 | 0.12
10 | Neisseria gonorrhoeae isolate 324 (blaTEM plasmid: no, gyrA: Phe91, Asn95, mtrR promoter: -35delA, parC: Arg87, Glu91, penA: ins345Asp, ponA: Pro421, porB: wild type, rpsJ: Met57, tetM plasmid: no) | 16 | 0.5 | 0.015 | 0.5 | 1
11 | Neisseria gonorrhoeae isolate 437 (blaTEM plasmid: no, gyrA: Thr91, Gly95, mtrR promoter: wild type, parC: wild type, penA: ins345Asp, ponA: wild type, porB: wild type, rpsJ: wild type, tetM plasmid: no) | 8 | 0.12 | ≤ 0.002 | 0.06 | 0.12
12 | Neisseria gonorrhoeae isolate 48 (blaTEM plasmid: no, gyrA: wild type, mtrR promoter: -35delA, parC: Ile 87, Glu91, penA: ins345Asp, ponA: Pro421, porB: Asp120, Gly121, rpsJ: wild type, tetM plasmid: no) | 16 | 0.5 | 0.008 | 0.25 | 1
13 | Neisseria gonorrhoeae isolate 215 (blaTEM plasmid: no, gyrA: wild type, mtrR promoter: wild type, parC: wild type, penA: ins345Asp, ponA: wild type, porB: wild type, rpsJ: wild type, tetM plasmid: no) | 16 | 0.12 | 0.008 | 0.12 | 0.25
14 | Neisseria gonorrhoeae isolate 156 (blaTEM plasmid: no, gyrA: Phe91, Gly95, mtrR promoter: wild type, parC: wild type, penA: wild type, ponA: wild type, porB: wild type, rpsJ: wild type, tetM plasmid: yes) | 32 | 0.5 | 0.008 | 0.03 | 8
15 | Neisseria gonorrhoeae isolate 213 (blaTEM plasmid: no, gyrA: wild type, mtrR promoter: wild type, parC: wild type, penA: wild type, ponA: wild type, porB: wild type, rpsJ: wild type, tetM plasmid: no) | 32 | ≤ 0.015 | ≤ 0.002 | 0.008 | 0.5
16 | Neisseria gonorrhoeae isolate 12 (blaTEM plasmid: no, gyrA: wild type, mtrR promoter: wild type, parC: wild type, penA: ins345Asp, ponA: wild type, porB: wild type, rpsJ: Met57, tetM plasmid: no) | 16 | 0.12 | ≤ 0.002 | 0.06 | 0.5
17 | Neisseria gonorrhoeae isolate 491 (blaTEM plasmid: no, gyrA: wild type, mtrR promoter: wild type, parC: wild type, penA: wild type, ponA: wild type, porB: wild type, rpsJ: wild type, tetM plasmid: no) | 16 | ≤ 0.015 | ≤ 0.002 | 0.12 | 0.25
18 | Neisseria gonorrhoeae isolate 102 (blaTEM plasmid: no, gyrA: wild type, mtrR promoter: wild type, parC: wild type, penA: ins345Asp, ponA: wild type, porB: wild type, rpsJ: wild type, tetM plasmid: no) | 32 | ≤ 0.015 | ≤ 0.002 | 0.06 | 0.25
19 | Neisseria gonorrhoeae isolate 39 (blaTEM plasmid: no, gyrA: wild type, mtrR promoter: wild type, parC: wild type, penA: wild type, ponA: wild type, porB: wild type, rpsJ: wild type, tetM plasmid: no) | 32 | ≤ 0.015 | ≤ 0.002 | 0.12 | 0.5
20 | Neisseria gonorrhoeae isolate 443 (blaTEM plasmid: no, gyrA: Phe91, Asn95, mtrR promoter: -35delA, parC: Arg87, Glu91, penA: ins345Asp, ponA: Pro421, porB: Lys120, Gly121, rpsJ: Met57, tetM plasmid: no) | 16 | 0.5 | 0.015 | 0.5 | 2
21 | Neisseria gonorrhoeae isolate 154 (blaTEM plasmid: no, gyrA: wild type, mtrR promoter: wild type, parC: wild type, penA: ins345Asp, ponA: wild type, porB: wild type, rpsJ: wild type, tetM plasmid: no) | 32 | 0.06 | 0.008 | 0.015 | 0.12
22 | Neisseria gonorrhoeae isolate 409 (blaTEM plasmid: no, gyrA: Thr91, Gly95, mtrR promoter: wild type, parC: wild type, penA: wild type, ponA: wild type, porB: Lys120, Asn121, rpsJ: Met57, tetM plasmid: no) | 16 | 0.5 | ≤ 0.002 | 0.5 | 0.5
23 | Neisseria gonorrhoeae isolate 279 (blaTEM plasmid: no, gyrA: wild type, mtrR promoter: wild type, parC: wild type, penA: wild type, ponA: wild type, porB: wild type, rpsJ: wild type, tetM plasmid: no) | 32 | 0.03 | ≤ 0.002 | 0.015 | 0.5
24 | Neisseria gonorrhoeae isolate 105 (blaTEM plasmid: no, gyrA: Phe91, Gly95, mtrR promoter: -35delA, parC: Arg87, Glu91, penA: ins345Asp, ponA: Pro421, porB: wild type, rpsJ: Met57, tetM plasmid: no) | 16 | 0.5 | 0.008 | 0.25 | 0.03
25 | Neisseria gonorrhoeae isolate 365 (blaTEM plasmid: no, gyrA: wild type, mtrR promoter: wild type, parC: Arg87, Glu91, penA: ins345Asp, ponA: Pro421, porB: wild type, rpsJ: Met57, tetM plasmid: no) | 16 | 0.25 | 0.008 | 0.06 | 1
